In PubChem BioAssay AID2101 (National Center for Advancing Translational Sciences (NCATS), 2009):
Among all 330,000 compounds or so, about 300 (0.091%) were called active. Inconclusive results, whose numbers are uncertain, are shown with a selection of clear calls. The call rests on the fitted dose curve; in most records, active means well fitted inhibition curve with a large enough effect; inconclusive means small, poorly fitted or top-dose-only effect, or effect the other way, or another doubt; inactive means no such curve, though single readings can be large or run the other way. Potencies of inconclusive entries are left out as doubtful fits.

Target: Lysosomal acid glucosylceramidase (Homo sapiens) (UniProt P04062)
Test: qHTS Assay for Inhibitors and Activators of N370S glucocerebrosidase as a Potential Chaperone Treatment of Gaucher Disease;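 on activity change, negative = inhibition: 0% = full enzyme activity and -100% = no enzyme basal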
Conditions: N370S GC spleen homogenate, 4MU-glucoside fluorescence; activity change, negative = inhibition: at 59.4 µM (top of the series) unless noted
Potency means the concentration at half of the fitted maximal effect.

Compound | Potency | activity change, negative = inhibition
COCCNC(=O)c1cn(CCOC)c(=O)c2c1c1ccccc1n2C | inconclusive [activator, single point] | 
CC(Oc1ccc2cc(-c3ccccc3)c(=O)oc2c1)C(=O)NCC1CCC(C(=O)O)CC1 (configuration not stated) | inconclusive [activator, partial curve] | 
COc1ccc2ncn(-c3ccccc3)c2c1 | inconclusive [activator, partial curve, poor fit] | 
CC(C(=O)NC1CCS(=O)(=O)C1)N1C(=O)/C(=C/c2ccc(Cl)cc2)SC1=S (configuration not stated) | inconclusive [inhibitor, single point] | 
COC(=O)CNc1c(-c2ccccc2)nc2ccc(Br)cn12 | active: 11.2 µM | 
CC(C)(C)c1ccc(C(=O)OCCNC(=O)c2c(Cl)nc3ccccn23)cc1 | inconclusive [activator, partial curve, poor fit] | 
CCCCn1c(-c2ccccc2C)nc2cc3[nH]c(=O)c(C(C)C)nc3cc21 | inconclusive [activator, partial curve] | 
CCCC/C=C/[C@H](c1ccccc1)[C@H](CO)Cc1ccc([N+](=O)[O-])cc1 | inactive | 
COc1ccc2[nH]c(C(=O)O)c(NS(=O)(=O)c3ccc(Cl)s3)c2c1 | inactive | 
Cc1cc(Cl)ccc1Nc1ncccc1C(N)=O | inactive | 
CCOC(=O)c1c(C)n(-c2ccc(C)cc2)c2c(C(C(C)=O)C(=O)O)c(Br)c(O)c(O)c12 (configuration not stated) | inconclusive [activator, partial curve] | 
CC12CCC(C/C1=N/NC(=O)COc1ccccc1Cl)C2(C)C (configuration not stated) | inconclusive [activator, partial curve] | 
CC(C)(CNC(=O)c1cc(-c2ccc(Cl)s2)nc2ccccc12)N1CCOCC1 | inconclusive [activator, single point] | 
COC(=O)c1ccc(C(=O)OC)c(NC(=O)c2cnc3n(c2=O)CCS3)c1 | inconclusive [activator, single point] | 
O=C(/C=C/c1ccc2c(c1)OCO2)NCCCN1CCOCC1 | inactive | 
Cc1oc2cc(O)ccc2c(=O)c1Oc1ccccc1 | inactive | 
CCOC(=O)c1cnn2c(C)cc(-c3ccc(F)cc3)nc12 | inactive | 
CC1(C)Cc2c(sc3nnn(Cc4ccccc4)c(=O)c23)CO1 |  | inconclusive: 31.4% [activator]
COc1ccccc1Nc1cc(C(=O)NCCCN2CCOCC2)c2ccccc2n1 | inconclusive [inhibitor, single point] | 
Cc1ccc(NC(=O)CN2C(=O)CC(C)S(=O)(=O)c3ccccc32)cc1 (configuration not stated) | inconclusive [activator, partial curve] | 
COCCN1C(=O)N(C)[C@@H](c2ccccc2)C(C(C)=O)=C1C | inconclusive [inhibitor, single point] | 
O=C(COc1ccc(Br)cc1)N(Cc1ccccc1)c1ccccn1 | inconclusive [activator, partial curve] | 
COc1ccc(N2C3=C(C(=O)CC(C)(C)C3)C(c3cnn(C)c3)C3=C2CC(C)(C)CC3=O)cc1 | inconclusive [activator, partial curve] | 

Compound | Potency | activity change, negative = inhibition
COC(=O)c1[nH]c2ccc(C)cc2c1NS(=O)(=O)c1ccc(F)cc1 | inactive | 
COc1ccc2[nH]cc(CCNc3ncncc3-c3ccccc3OC)c2c1 | inactive | 
O=C(Nc1ccncc1)Nc1cccc(C(F)(F)F)c1 | inconclusive [inhibitor, full curve, poor fit] | 
O=c1[nH]c(C2CCN(S(=O)(=O)c3cccc(Cl)c3)CC2)nc2c1nnn2Cc1ccccc1 | inactive | 
CCOP(=O)(OCC)C(Nc1ccccc1)c1ccc2c(c1)OCO2 (configuration not stated) | inconclusive [inhibitor, partial curve] | 
O=C(N/N=C/c1ccco1)Nc1ccccc1 | inconclusive [activator, single point] | 
COc1ccc(CCN2CCC(Nc3nc4ccccc4n3Cc3ccc(F)cc3)CC2)cc1 | inconclusive [inhibitor, partial curve] | 
CCC1(C)Cc2ccccc2-c2nc(NCCO)[nH]c(=O)c21 (configuration not stated) | inconclusive [activator, partial curve] | 
CC(=O)Nc1cc(OC(C)=O)c2nonc2c1OC(C)=O | inactive | 
CCc1ccccc1N(C(=O)c1snc(C(N)=O)c1N)C(C(=O)NCC1CCCO1)c1ccc(C)o1 (configuration not stated) | inconclusive [activator, single point] | 
COc1cc(/C=N/n2c(C)nc3ccccc3c2=O)ccc1O | inconclusive [inhibitor, partial curve] | 
COc1cccc(CNCC(O)COc2ccc(C(=O)c3ccccc3)cc2)c1 (configuration not stated) | inconclusive [inhibitor, single point] | 
CCC(C)N1C(=O)S/C(=C/c2ccc(Sc3nc4ccccc4[nH]3)o2)C1=O (configuration not stated) | inconclusive [activator, partial curve] | 
COc1ccc(CNC(=O)/C(C#N)=C/c2cccc(OC)c2OC)cc1 | inconclusive [activator, single point] | 
N#Cc1c(N)n(CCNC(=O)c2ccccc2)c2nc3ccccc3nc12 | inconclusive [activator, partial curve] | 
CC(=O)OCC1OC(C#Cc2ccccc2)C=CC1O (configuration not stated) |  | inactive: 2.91% [at 12.8 µM]
COc1ccc(S(=O)(=O)NC(C(=O)NCCc2ccccn2)C(C)C)cc1 (configuration not stated) | inconclusive [inhibitor, partial curve] | 
O=C(NC12CC3CC(CC(C3)C1)C2)c1ccc(-c2ccc(Br)cc2)o1 | inconclusive [activator, partial curve] | 
Cc1nc2ccccc2c(=O)n1NC(=O)Cc1ccc(Br)cc1 | inactive | 
CCOC(=O)N1CCN(CC(=O)N2c3ccccc3Sc3ccccc32)CC1 | inactive | 
CC(C)NC(=O)c1cc(-c2cccs2)nc2ccccc12 | inconclusive [activator, single point] | 
Cc1ccc2nc3c(cc(C(=O)NCCc4ccccc4)c(=N)n3CCCN3CCOCC3)c(=O)n2c1 | inconclusive [activator, single point] | 
CCOC(=O)N1CCN(C(=O)COc2ccc3c(c2)C(=O)CC2(CCN(C(C)=O)CC2)O3)CC1 | inactive | 

Compound | Potency | activity change, negative = inhibition
CC(=O)N1CCOc2cc(S(=O)(=O)NC(C)c3ccccc3)c(Cl)cc21 (configuration not stated) | inconclusive [inhibitor, single point] | 
Cc1[nH]nc2c1C(CC(C)C)C(C#N)=C(N)O2 (configuration not stated) | inactive | 
CN(C)C(=O)COc1ccc2cc(-c3ccccc3)c(=O)oc2c1 | inconclusive [activator, partial curve] | 
CCCCc1c(C)c(C#N)c2[nH]c3ccccc3n2c1=O | inconclusive [activator, partial curve] | 
Cc1ccc2nc(-c3ccc(O)cc3)oc2c1 | inconclusive [activator, single point] | 
N#Cc1nc(-c2cccs2)oc1NCCc1ccccc1 | inconclusive [activator, partial curve] | 
CC(=O)N1CCN(C(=O)c2cc(-c3ccc(Cl)s3)nc3ccccc23)CC1 | inconclusive [activator, full curve] | 
O=c1c2ccccc2nnn1Cc1cccc2ccccc12 | inconclusive [inhibitor, single point] | 
CCC1(C)Cc2c(sc3nc(SC)n(Cc4ccccc4)c(=O)c23)CO1 (configuration not stated) | inactive | 
C=CCn1c(SCC(=O)c2cc(C)n(Cc3cccs3)c2C)nnc1-c1ccncc1 | inconclusive [inhibitor, single point] | 
CCCCn1c(N)c(N(CC)C(=O)C2COc3ccccc3O2)c(=O)[nH]c1=O (configuration not stated) | inconclusive [activator, single point] | 
O=C(NCCN1CCOCC1)c1cc2ccccc2oc1=O | inconclusive [activator, single point] | 
CCN(Cc1ccccc1)S(=O)(=O)c1cc2[nH]c(=O)c(=O)[nH]c2cc1C | inconclusive [inhibitor, partial curve] | 
CC1CC(C(F)(F)C(F)(F)F)n2nc(C(=O)O)cc2N1 (configuration not stated) | inactive | 
CCNC(=O)/C(C#N)=C/c1c(N2CCN(C)CC2)nc2c(C)cccn2c1=O | inconclusive [activator, partial curve] | 
CC(C)C[C@H](NC(=O)[C@H](Cc1ccccc1)n1c(=O)[nH]c2ccccc2c1=O)C(=O)N1CCC(C(=O)O)CC1 | inconclusive [activator, single point] | 
COc1cccc(NC(=O)[C@H](Cc2ccccc2)NC(=O)[C@@H]2Cc3ccccc3CN2)c1 | inconclusive [inhibitor, full curve, poor fit] | 
CCOC(=O)c1c(C)[nH]c(C)c1C(=O)COC(=O)c1c(OC)cccc1OC | inconclusive [inhibitor, single point] | 
CCOC(=O)C1=NN(C(C)=O)C2(CC(=O)N(c3cccc(C)c3)C2=O)C1 (configuration not stated) | inconclusive [inhibitor, partial curve] | 
Cc1ccc(-c2cc(C(=O)N3CC(C)CC(C)C3)c3ccccc3n2)o1 (configuration not stated) | inconclusive [activator, partial curve] | 
O=C(COC(=O)c1ccc(Br)o1)Nc1cccc(S(=O)(=O)N2CCCCCC2)c1 |  | inconclusive: 37.6% [activator]
